Test results taken from the supplement of paper PMC11417369.
± gives the standard deviation of the averaged measurements. This is one part of the list.

Each sequence was assayed on PfAP2-I AP2 domain 3 (GST-tagged) (assay: gcPBM binding intensity (ln(normalized median fluorescence intensity)); higher = stronger DNA binding).
In short: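 Binding intensity values are the highest Masliner-normalised natural-log median intensity among replicate spots of either probe orientation. The binding step lasted 1 h in 1× PBS with 1% milk, 0.2 mg/ml BSA, 0.5% salmon testes DNA and 0.03% Triton X-100, using GST-tagged P. falciparum DNA-binding domains expressed in E. coli on an Agilent 4 × 180k array of primer-extended double-stranded 36-bp intergenic genomic probes plus negative controls. Alexa488 anti-GST antibody and a 488 nm scan detected bound protein.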

Sequence | gcPBM binding intensity (ln)
AATGTACAAATACGTACACACATATTTATATTTATA [CACACA_site6833] | 8.09 ± 0.3
AAGAATGTTATTAGTACACACAATTATTATAGAAAT [CACACA_site7714] | 7.96 ± 0.4
TAAAAATTGAAGCACACACACAAAAGAAATACAATA [CACACA_site1113] | 8.14 ± 0.41
TTTTTTTTTACTTGTTGTACTTTTTCAAGGTATTGT [XGTACX_site7778] | 7.92 ± 0.65
ATATAAAAAAATTGCACACATAAATAAATACAGATA [CACACA_site4806] | 8.47 ± 0.2
TAATGTATTATATTTTGTTTTCTTCCACCAAAAAAA [XGTACX_negctrl_site64] | 8.01 ± 0.47
AAAAAAAAAATTAAATGTACACACACCTTAAACAAT [XGTACX_site3848] | 7.91 ± 0.41
ATTTTCTTATATATATTTTGTATATATTTTGTACAT [CACACA_negctrl_site1496] | 7.89 ± 0.71
ACCCATATAATATATACACACATATATATATATATA [CACACA_site4731] | 9.39 ± 0.36
TTTATTTTTATTTAAAGTACATATCCATTTATTCCT [XGTACX_site1914] | 7.71 ± 0.22
TACTTGTTATTAACATGTACAAAAAAAAAAAAAATT [XGTACX_site1338] | 7.64 ± 0.45
AAACAATATTCTCAAGTGCAAAAAGAAAAAAGAAAT | 10.3 ± 0.12
AATGTACCCACACCCACACACAAACAAATATATATA [CACACA_site2751] | 8.46 ± 0.4
ATAGGATGCATATGAGTGCATTCTGTGTTGTTATAA | 9.57 ± 0.19
AGATTAAAATATATACGTACATATTATTAATTAATA [XGTACX_site3487] | 7.73 ± 0.21
TCACCATATAAACGTGCACACTACAAAAATATATAA [CACACA_site5413] | 11 ± 0.24
ATATAAATATTATAATGTACATATAATATATTTATT [XGTACX_site5212] | 7.52 ± 0.3
CTTTTATTTTATTTTAGTACGCAACATTCTCTATAT [XGTACX_site7279] | 8.08 ± 0.55
TATTTATTTAAAAATTGTACGTAGGATTATACACTT [XGTACX_site286] | 7.88 ± 0.55

Sequence | gcPBM binding intensity (ln)
TAAAATTTGTACATAGTGCAATTTTTTTTTTTTTTT | 9.81 ± 0.099
ATCTCTGTATGTTAGACACACATATTTTAATATGTT [CACACA_site4244] | 7.64 ± 0.54
ATATATTGCACTTTTTGTACATAATGAAAAATTTTT [XGTACX_site8223] | 11.5 ± 1
ACCTTAATAAAAAAAAGTACAAACATGTTCAAATTG [XGTACX_site1556] | 8.12 ± 0.12
TACATATTGATATATACACACAAAAAAATAAATTCT [CACACA_site6198] | 7.61 ± 0.54
TTTTTTATAGTACATTACCAAAAAAAAAAAAAAAAA [GTGCAC_negctrl_site549] | 8.13 ± 0.57
AATTCGTACCTCATTTGTACATATATATATATATAT [XGTACX_site5513] | 9.42 ± 0.4
CATACACCCATACATACACACATACAGATATATATA [CACACA_site5123] | 8.17 ± 0.64
GTATTGCATGAGGACACACACAAAAAAAATATAGAT [CACACA_site6500] | 8.28 ± 0.46
TATATATTTCATCCTTGTACACATTTGTGTTTACAT [XGTACX_site1132] | 7.84 ± 0.37
AATAAATAAATATATATATATATATATATATATATA [CACACA_negctrl_site365] | 9.21 ± 0.49
ACAATTTACACTTAAACACACAAAAAAAAGTTATAT [CACACA_site7056] | 7.97 ± 0.65
TATCAAAATTGTAATTGTACTTGTAAGTGGATATAT [XGTACX_site5949] | 8.13 ± 0.16
TAGTTTTTTATATATTGTACAAATAATATATGATAT [XGTACX_site4220] | 7.94
AGTGATTATTAATAATGTACATATCTATAAATATAT [XGTACX_site4734] | 7.75 ± 0.45
TTTTTTTTTTTTTTCTTACAATTTATTGAACAAATG [XGTACX_negctrl_site515] | 7.93 ± 0.58
TATATATTATAAAATTGTACATATATTAAATTTTTT [XGTACX_site5852] | 7.45 ± 0.36
CAAAACAAAACGTATGCACACAATTAAAATATTAAA [CACACA_site5815] | 8.49 ± 0.34
AAATGTTGAGCAGTACAAAAAAAAAAAAAAAAAAAA [GTGCAC_negctrl_site518] | 8.15 ± 0.74

Sequence | gcPBM binding intensity (ln)
AAGATACCAATGAAATGTACATATATATAAATATAA [XGTACX_site2135] | 7.75 ± 0.6
CATTTATATAAAAGAACACACATATAAAATATTATT [CACACA_site3601] | 7.66 ± 0.52
TTTTTTTTTTAATTGGGTACATATATAATTTAAGAA [XGTACX_site2732] | 7.92 ± 0.55
GGTGGGGAGGAGTAATGTACAAATTAACATATTATG [XGTACX_site6666] | 9.38 ± 0.13
TTCTTACATGAGTGTACACACTTTTTTTCAGAAAAT [CACACA_site4215] | 8.39 ± 0.67
AATAGTCGGGTGCATACACACCTTAAATATAATATA [CACACA_site8271] | 10.3 ± 0.55
TTATAAAATATTTATGCATGTGAAGAATATTATAAA [TGCATGCA_site1047] | 8.42 ± 0.34
GAAAAAAGTATCAAGGTGCGTATATACATCAAAATA | 9.64 ± 0.028
ATATCATTTTCCTGCACACATAAATTTATATAATAT [CACACA_site1048] | 9.45 ± 0.38
ACACATAAATGAATAAATAAATAAATATAAATATAA [CACACA_negctrl_site1784] | 7.46 ± 0.35
AAAAGAACAATGAAGTGTACTAATAATTATTTATGT [XGTACX_site6649] | 8.09 ± 0.45
TTTTATCATCTTTTTACATTATGTATAAATATTTTC [CACACA_negctrl_site206] | 7.95 ± 0.76
AGCAAAACATAAAATAGTACACATTTAACAAAAAAA [XGTACX_site2921] | 7.97 ± 0.55
ATATAATATATTTTTGAACACACAATATATATATAT [CACACA_site9368] | 9.14 ± 0.3
TTTTGTTGAAAAGTAAGATATTCCAACATGTTTTTA [CACACA_negctrl_site391] | 7.38 ± 0.64
TAACTAATATATAAAACACACATCATAAAAATATAA [CACACA_site768] | 7.67 ± 0.61
ATATATGTGTATGTATGTACTTATATTTTTTTTTAT [XGTACX_site1733] | 7.74 ± 0.17
TCCGTTATATATGTGTGTACATATAATATATCCTCA [XGTACX_site2588] | 7.96 ± 0.47
GCAAATCAATTTTTTTTTAAAACTCATTTTTTCGTT [CACACA_negctrl_site1136] | 7.68 ± 0.78
